B1: chr1:77949188:77949289:-|CDS|ENSG00000162613|unk|total|mutant (ssRNA)
RNA: GGGAGUUCUACAGUCCGACGAUCUUCAAAGGUCAGGCAGUUCCUGCUCCGACUGGGGCUCCUCCAGGUGGUCAGCCAGAUUACCGUGCAGCCUGGGCUGAGUAUUACCGACAACAAGCAGCCUAUUAUGCCCAGACAAGUCCCCAACAGAGGAUUGAGCAUCA
B2: chr8:23572142:23572248:+|3pUTR|ENSG00000147454|unk|total|mutant (ssRNA)
RNA: GGGAGUUCUACAGUCCGACGAUCCCUCCCUGGGCAGAAUGCCGCUUUUCUGCUUCACUGUGGCAGCCUCCUCCCUGGAUCCUCCGAUCCCAGAGGAGGGAAGAAAAUUUGCAGUGACUGAAAACAGUAAAAAAAAAAAAAAAACAACAGAGGAUUGAGCAUCA
B3: chr10:113876644:113876745:+|CDS|ENSG00000196865|msi1|FALSE|bound_elsewhere (ssRNA)
RNA: GGGAGUUCUACAGUCCGACGAUCGGUUAAUGAUGCAGAUGCCAGCCUUUGGCAAGAACUAGAAGUUUCCUGCUGGCCAACUCUAGUCAUACUUGGACCUCGUGGAAACAUGUUGUUUUCUUUGAUUGGAGAGGGACACAAAGACAACAGAGGAUUGAGCAUCA
B4: chr12:39370042:39370220:-|CDS|ENSG00000139116|unk|FALSE|unique (ssRNA)
RNA: GGGAGUUCUACAGUCCGACGAUCUACUUUUGACUAUGUAUUUGACAUUGACUCCCAGCAAGAGCAGAUCUACAUUCAAUGUAUAGAAAAACUAAUUGAAGGUUGCUUUGAAGGAUACAAUGCUACAGUUUUUGCUUAUGGACACAACAGAGGAUUGAGCAUCA
B5: ENSG00000099904:stop:overlap|stop_codon|ENSG00000099904|stop_codon|NA|stop_codon (ssRNA)
RNA: GGGAGUUCUACAGUCCGACGAUCGGGCCAUGUGCCGCCUGCACUUGGCUGCCUCCAGUCUUUUCCCCAGCCUCUCGGGGCCCUAGCAGGAUGACAAGUAGGCGGCUCUGGGGCCCAGGACAGCCCAGCUGGGGACCCAGGAGGCAACAGAGGAUUGAGCAUCA
B6: chr2:159967538:159967678:-|CDS|ENSG00000153246|control|control|control (ssRNA)
RNA: GGGAGUUCUACAGUCCGACGAUCUAGUGAAGAGUGUUCAGUUUCUAUGCCUAGUAUCUGUAAGCGAAAAAAGGUUUGGCUCAUAGAGAAAAAGAAAGAUACACCAAAACAACAUGGAACGUGUCCCAAAGGAUGGCUAUAUUUCAACAGAGGAUUGAGCAUCA
B7: chr19:19111484:19111585:+|3pUTR|ENSG00000181035|msi1|FALSE|unique (ssRNA)
RNA: GGGAGUUCUACAGUCCGACGAUCAGCCUCAUGUCUAUCCUAGACCCUGCAAGCAGCUGGGUCCCCAAGAGUGCAUCUCCCCCUAGAGUUGCCUGCCCAUGCCCACCUGCUUUGUAACCUUCCCAGGAGAUUCAUGCUUGCUCUCAACAGAGGAUUGAGCAUCA
B8: chr1:203709306:203709407:+|CDS|ENSG00000058668|msi1|total|mutant (ssRNA)
RNA: GGGAGUUCUACAGUCCGACGAUCUCCAGAGAAGGAGGGAGGCCUGCCUCGGCAGGUGGGCAACAAGACCGAGUGUGCUCUGCCCGGCUUUGUCACAGAUCUGAAGCAGGAUUAUCAGGCUGUGCGUAAUGAAGUGCCCGAGGACAACAGAGGAUUGAGCAUCA
B9: chr6:149379354:149379455:+|CDS|ENSG00000055208|msi1|total|mutant (ssRNA)
RNA: GGGAGUUCUACAGUCCGACGAUCAGGGGUGGUGUCCCCUACCUUUGAACUUACAAAUCUUCUUAAUCAUCCUGAUCAUUAUGCCGAAACCGAGAAUAUUCAGCACCUCACGGACCCUACAUCCGCACAUGUGGACCGAAUAAGCAACAGAGGAUUGAGCAUCA
B10: chr13:66631209:66631411:-|CDS|ENSG00000184226|control|control|control (ssRNA)
RNA: GGGAGUUCUACAGUCCGACGAUCCCUGAUGGCUCCCAGGAAAGCUGCAGUGACAGUGGUCUAGGAGACCAUGAGCCGGUGGGUAGUGGAACCCUGAUCUCACACCCUCUUCCUCUGGUUCAGCCACAGGACGAAUUCUAUGACCAACAGAGGAUUGAGCAUCA
B11: chr12:3284911:3285012:+|3pUTR|ENSG00000011105|msi1|FALSE|unique (ssRNA)
RNA: GGGAGUUCUACAGUCCGACGAUCGGAGGACAGAACCGUUGGCAUUAUCAGGAUUCGUGUUUUGUGGGGGUGGGAGUGGAGAGUAGGGUGGUCUUGUGAGUUGUGCAGGGUGAAGACCGCUUCCCUGAGACAGGGGCAGUGGUGCAACAGAGGAUUGAGCAUCA
B12: ENSG00000148248:stop:overlap|stop_codon|ENSG00000148248|stop_codon|NA|stop_codon (ssRNA)
RNA: GGGAGUUCUACAGUCCGACGAUCUGAUGUUCAUGACCCUCCUUCACUUUGACGCCAGCUUCUUUUCUCAGCCGUCUCAGCAGUAGCUACAUCAGCCUGAUGGAUAGAGACUUCAUGACGUGCAGCAGCUGGAACUUUUGUUUACAACAGAGGAUUGAGCAUCA
B13: ENSG00000130560:stop:overlap|stop_codon|ENSG00000130560|stop_codon|NA|stop_codon (ssRNA)
RNA: GGGAGUUCUACAGUCCGACGAUCCAGAAACGGGGCCUGUCAUGCUGCAGAUCUCUAGAAUCUUCCAGACACUAAAUCGCACGUAGGUGGCGUUGUUCCACUCGGCUAUCAGGCCACAGCAGCCCCCUGGUGCGGCCCGAGACCCAACAGAGGAUUGAGCAUCA
B14: chr17:49707729:49707944:-|CDS|ENSG00000121073|control|control|control (ssRNA)
RNA: GGGAGUUCUACAGUCCGACGAUCCUGCCGGUGCCGGUUGUGAGCGGGUCUCCAGUCGGCUCCUCUGGGCGUCUCAUGGCCUCUAGCAGCUCCCUGGUGCCCGACCGGCUGCGCCUGCCGCUCUGCUUCCUGGGUGUCUUUGUCCAACAGAGGAUUGAGCAUCA
B15: chrX:9032958:9033121:-|CDS|ENSG00000177138|control|control|control (ssRNA)
RNA: GGGAGUUCUACAGUCCGACGAUCCCAGGUUUCCUUAGCUUCCUUAGUGUGUCUUUGCGCUCACCAGGUUCGGGGAUCGCCUCUAGCUUCCCAGGACAACCAGCCACGGAUCCUGUGGGCAGGAGGGCUGCCAAGGCCCAGUUGCAACAGAGGAUUGAGCAUCA
B16: chr22:38485951:38486139:-|CDS|ENSG00000100201|unk|total|mutant (ssRNA)
RNA: GGGAGUUCUACAGUCCGACGAUCCCGCCGCACCACCUCAACUGGGAGAAGUUCACAGAGCUCCCGCCAGCAGUUCCGUGGGACCGGCCGGUCUGGGCAGCAGCCACAGCCACUGAUGUCACAACAGUUUGCACAGCCUCCGGGCAACAGAGGAUUGAGCAUCA
B17: chr3:23954599:23954720:+|CDS|ENSG00000174738|unk|FALSE|unique (ssRNA)
RNA: GGGAGUUCUACAGUCCGACGAUCAGUGAGGGUUCUGAGAAUAGUUUCCAGUCCUCCUCCUCUUCUGUUCCAUCUUCUCCAAAUAGCUCUAAUUCUGAUACCAAUGGUAAUCCCAAGAAUGGUGAUCUCGCCAAUAUUGAAGGCCAACAGAGGAUUGAGCAUCA
B18: chr17:64498535:64498649:-|3pUTR|ENSG00000108654|unk|total|mutant (ssRNA)
RNA: GGGAGUUCUACAGUCCGACGAUCUUAAACUGAGGCUUUAAUUGAUGUUAAUGCCUUAUGUCAAAUGUAAAGUCCGAAUUUGCCCGGGCUGGGACCGGGAGUGAUAUUUCCCGGACUCCGACAUUGAAAACUAAUUCAGCCUGUCAACAGAGGAUUGAGCAUCA
B19: chr12:7729382:7729740:-|three_prime_utr|ENSG00000198178|control|control|control (ssRNA)
RNA: GGGAGUUCUACAGUCCGACGAUCAUCUACAUAUAAAUGAAAUAUUCUCCCUGGAAAUGUGUUUGGGUUGGCAUCCACCGUUGUAGAAAGCUAAAUUGAUUUUUUAAUUUAUGUGUAAGUUUUGUACAAGGAAUGCCCCUAAAACAACAGAGGAUUGAGCAUCA
B20: chrX:53645320:53645442:-|CDS|ENSG00000086758|unk|total|mutant (ssRNA)
RNA: GGGAGUUCUACAGUCCGACGAUCUUAUUGGCUUCCUCUGAUAUGCAAGUGGUGCUGGCAGUCCUCAAUCUCCUAUAUGUAUUCCGCAAAAGAUCAAACUACAUCACUCGUCUGGGAUCUGACAAGAGGACCCCGCUGCUAACUCAACAGAGGAUUGAGCAUCA
B21: chr16:46956839:46956924:-|3pUTR|ENSG00000069345|msi1_unk|total|mutant (ssRNA)
RNA: GGGAGUUCUACAGUCCGACGAUCAUCAAUCCAGAUGAACUGAGGGACAUCUGUUGGUCUAUGUAUAACUUUUAAAAUUGGUACCGUAUCUACAGAGUGUAUAAUUUAAACUAACCACAAAGCUUUACAUCUUCAUUUUGACUGCAACAGAGGAUUGAGCAUCA
B22: chr5:80438700:80438808:+|CDS|ENSG00000039319|unk|total|mutant (ssRNA)
RNA: GGGAGUUCUACAGUCCGACGAUCAGAUACAACCGAAAGUGAACCCAGCACAGCAGAUACCGUUGUUCCAAUCACUUGUGCUACCGAUUCUACAGCUGAUCCACAGGUCCGCUUCAACUCUAAUUACAUUGAUACCGAAAGUAACAACAGAGGAUUGAGCAUCA

The values below come from PMC12136788.

The list shows a part of the results.

The assay has as its target MSI1 full-length (mouse, UniProt Q61474 1-362). In words: nsRBNS (natural sequence RNA bind-n-seq); RBNS binding buffer (assumed for nsRBNS): 25 mM Tris pH 7.5, 150 mM KCl, 3 mM MgCl2, 0.01% Triton X-100, 500 ug/ml BSA, 20 U/ml SUPERase-In, 4 C; UNK is unkempt and MSI1 is Musashi-1; names of the RNAs are library labels; protein concentration not given here; high values mean tight binding.
Chain of UniProt Q61474 (Q61474 whole entry): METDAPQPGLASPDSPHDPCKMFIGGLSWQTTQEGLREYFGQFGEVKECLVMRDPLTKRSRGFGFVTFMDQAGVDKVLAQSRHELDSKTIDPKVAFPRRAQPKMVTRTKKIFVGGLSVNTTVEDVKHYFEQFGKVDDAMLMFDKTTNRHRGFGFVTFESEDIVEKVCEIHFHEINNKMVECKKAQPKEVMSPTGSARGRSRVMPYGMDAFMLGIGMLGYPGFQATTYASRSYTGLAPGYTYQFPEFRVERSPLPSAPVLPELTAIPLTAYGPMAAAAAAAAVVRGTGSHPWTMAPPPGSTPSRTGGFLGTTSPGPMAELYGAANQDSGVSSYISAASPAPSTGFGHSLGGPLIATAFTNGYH
Molecule B1 registered a binding signal of 0.427 enrichment R.
Then B2, with 0.358 enrichment R.
Consider B3, for which the binding signal came out at 0.522 enrichment R.
Consider B4, for which the binding signal stood at 1.19 enrichment R.
Then B5, with 1.02 enrichment R; and B6, with 0.633 enrichment R; and B7, with 0.61 enrichment R.
Then B8, with 0.402 enrichment R.
Next, B9: 0.36 enrichment R.
With B10, the binding signal was found to be 0.365 enrichment R.
Then B11, with 0.736 enrichment R; and B12, with 0.533 enrichment R; and B13, with 0.329 enrichment R.
Then B14, with 0.322 enrichment R.
Then B15, with 0.802 enrichment R; and B16, with 0.45 enrichment R.
As for B17, the binding signal came out at 1.23 enrichment R.
Then B18, with 0.202 enrichment R.
Regarding B19, the binding signal is 0.681 enrichment R.
B20: the binding signal was found to be 0.555 enrichment R.
B21 gave a binding signal of 1.69 enrichment R.
As to B22, the binding signal came out at 0.458 enrichment R.
